Source: PubChem BioAssay (NCI)
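Following 48 hours of exposure in 96-well plates, responses at five concentrations were used to interpolate endpoints linearly. GI50: concentration for 50% inhibition of growth. TGI: concentration producing complete growth inhibition.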

System: NCI-H322M lung
Experiment: growth of human tumour cells (NCI), 48 h

Row | Compound | GI50 [µM] | TGI [µM]
1 | O=C(CSc1nc2sc3c(c2c(=O)n1-c1ccc(Cl)cc1)CCCC3)NNC(=O)Nc1ccc(Cl)c(C(F)(F)F)c1 | 4.95 | > 100
2 | Oc1ccccc1/C=N/Nc1nc(N/N=C/c2ccccc2O)nc(N2CCOCC2)n1 | 4.55 | > 100
